Assay results published in publication PMC4336329 (PLoS ONE, 2015).
About 2,200 (0.71%) of roughly 310,000 compounds showed an effect of 50% or more. The effect is printed as a negative number. The list shows a part of the results.

Target: human ether-à-go-go-related gene (hERG) potassium channel (human, UniProt Q12809)
Experiment: primary screen, population patch clamp on CHO cells stably expressing hERG

human ether-à-go-go-related gene (hERG) potassium channel, sequence (Q12809 whole entry, looked up): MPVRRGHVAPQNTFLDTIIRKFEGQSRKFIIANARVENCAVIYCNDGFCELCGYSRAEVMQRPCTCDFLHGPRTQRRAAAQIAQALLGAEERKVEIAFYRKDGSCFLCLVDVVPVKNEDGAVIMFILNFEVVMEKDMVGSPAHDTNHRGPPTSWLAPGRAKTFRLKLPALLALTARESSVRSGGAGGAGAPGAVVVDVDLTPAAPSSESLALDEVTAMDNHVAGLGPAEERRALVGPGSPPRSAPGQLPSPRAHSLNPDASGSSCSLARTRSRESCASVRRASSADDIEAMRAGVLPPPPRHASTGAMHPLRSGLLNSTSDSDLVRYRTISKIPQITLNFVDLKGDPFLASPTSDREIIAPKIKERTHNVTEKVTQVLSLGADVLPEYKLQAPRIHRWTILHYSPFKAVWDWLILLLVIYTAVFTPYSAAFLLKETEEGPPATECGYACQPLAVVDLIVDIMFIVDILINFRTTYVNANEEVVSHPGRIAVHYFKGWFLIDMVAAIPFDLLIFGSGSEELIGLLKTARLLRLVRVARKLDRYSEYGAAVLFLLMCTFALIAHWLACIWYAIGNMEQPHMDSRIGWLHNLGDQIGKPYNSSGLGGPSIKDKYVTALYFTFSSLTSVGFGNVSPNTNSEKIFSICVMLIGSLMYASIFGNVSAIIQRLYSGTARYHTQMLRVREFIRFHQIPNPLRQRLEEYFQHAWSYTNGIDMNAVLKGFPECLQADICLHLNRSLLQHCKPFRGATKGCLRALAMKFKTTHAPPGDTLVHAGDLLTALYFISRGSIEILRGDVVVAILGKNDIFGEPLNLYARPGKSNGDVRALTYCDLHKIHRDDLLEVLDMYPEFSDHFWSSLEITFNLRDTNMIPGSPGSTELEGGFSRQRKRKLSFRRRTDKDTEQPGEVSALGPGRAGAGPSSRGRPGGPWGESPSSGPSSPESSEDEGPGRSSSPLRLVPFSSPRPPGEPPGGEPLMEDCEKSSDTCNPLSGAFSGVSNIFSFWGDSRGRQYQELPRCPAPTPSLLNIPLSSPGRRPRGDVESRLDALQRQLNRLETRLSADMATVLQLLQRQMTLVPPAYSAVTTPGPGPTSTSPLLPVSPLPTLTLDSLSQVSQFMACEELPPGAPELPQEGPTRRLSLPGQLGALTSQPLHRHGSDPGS

Going from `CCOC(=O)C1=C(N)c2ccccc2CC1C1CCCC1` (centres unmarked) to `CCOC(=O)c1cnc(SC)nc1Sc1ccccc1`, the “hERG current change (%, negative = inhibition) at 1uM” value falls from 15.7% to -7.02%.

First: Cl.NC(N)=NC(N)=NCCc1ccccc1
Second: Nn1c(SCC(=O)NCc2ccccc2)nnc1C1CC1
The “hERG current change (%, negative = inhibition) at 1uM” value of the first is higher: 12.9% for the first, 3.23% for the second.

Going from `CCCN(CC1CCCO1)C(=O)CCc1nnc(-c2cc(C)on2)o1` (centres unmarked) to `CC(C)N1CCCC(CNC(=O)CCc2nnc(CCCCc3ccccc3)o2)C1` (centres unmarked), the “hERG current change (%, negative = inhibition) at 1uM” value rises from 4.79% to 15.6%.

First: CCCNC(=O)c1c(N)n(-c2cccc(OC)c2)c2nc3ccccc3nc12
Second: Cc1ccc(C(=O)NCCc2nc3ccccc3[nH]2)cc1[N+](=O)[O-]
The “hERG current change (%, negative = inhibition) at 1uM” value of the first is higher: 3.02% for the first, 0.737% for the second.

Going from `CCOC(=O)CSc1nnc(-c2ccc3ncccc3c2)n1C` to `CCOc1ccc(NC(=O)CSc2nnc(-c3ccco3)n2N)cc1`, the “hERG current change (%, negative = inhibition) at 1uM” value rises from -2.83% to 14.4%.

Going from `Cc1ccc(Sc2cc(N3CCOCC3)nc(-c3ccccc3)n2)cc1` to `Cc1ccc(C(c2nnnn2CC2CCCO2)N2CCN(Cc3ccccc3)CC2)cc1` (centres unmarked), the “hERG current change (%, negative = inhibition) at 1uM” value falls from 2.51% to -45.7%.

First: Cc1cccc(N2CCN(C(=O)c3cc4n(n3)C(C(F)(F)F)CC(c3ccco3)N4)CC2)c1C (centres unmarked)
Second: COc1ccc(CC(=O)N2CCN(c3ccccc3F)CC2)cc1OC
The “hERG current change (%, negative = inhibition) at 1uM” value of the first is higher: 22.5% for the first, -0.371% for the second.

Compared with `O=C(CNS(=O)(=O)c1ccc(Br)cc1)N1CCN(c2ccc(F)cc2)CC1`, `COc1ccc(C(=O)c2ccc(N3CCN(C4CC(=O)NC4=O)CC3)cc2)cc1F` (centres unmarked) is higher in “hERG current change (%, negative = inhibition) at 1uM” value: -4.67% for the first, 0.434% for the second.

First: COc1ccc(C(=O)Nc2ccc(NC(=O)C3CC3)nc2)cc1
Second: COc1ccc(C(=O)NC(=S)SCC(=O)O)cc1
The “hERG current change (%, negative = inhibition) at 1uM” value of the first is higher: 16.2% for the first, 15.2% for the second.

Compared with `O=C(NC1CCCc2ccccc21)C1CCN(c2nnc(-n3cccc3)s2)CC1` (centres unmarked), `COc1ccc(-n2ncc3c2CC(C)(C)CC3NC(=O)C2CCN(C(C)=O)CC2)cc1` (centres unmarked) is higher in “hERG current change (%, negative = inhibition) at 1uM” value: 2.19% for the first, 18.3% for the second.

Going from `C=CCn1c(C(CCC(C)C)CC(C)(C)O)n[nH]c1=S` (centres unmarked) to `COc1cc([N+](=O)[O-])ccc1NC(=O)CSc1n[nH]c(C(C)C)n1`, the “hERG current change (%, negative = inhibition) at 1uM” value falls from 13.9% to 8.6%.

First: COc1ccc(CCNC(=O)c2ccccc2C(=O)NCCc2ccc(OC)cc2)cc1
Second: COc1ccc(CCNC(=S)Nc2ccc(OC)cc2)cc1
The “hERG current change (%, negative = inhibition) at 1uM” value of the first is lower: -1.22% for the first, 13.5% for the second.

Going from `Cc1sc2nc(-c3ccccc3)oc(=O)c2c1C` to `c1ccc(-c2nnc3sc(-c4csc5c4CCCC5)nn23)cc1`, the “hERG current change (%, negative = inhibition) at 1uM” value rises from 2.92% to 4.3%.

Compared with `Cc1nn(C)c(Cl)c1CN1CCC(CO)(CCOc2ccccc2)CC1`, `O=C1CCCN1CCC(=O)N1CCCC(CO)(Cc2ccccc2)C1` (centres unmarked) is higher in “hERG current change (%, negative = inhibition) at 1uM” value: -12.9% for the first, 30.9% for the second.

First: Cc1ccnc(SCCn2c(Br)nc3c2c(=O)[nH]c(=O)n3C)n1
Second: CCc1ccccc1NC(=O)CSc1n[nH]c(-c2cccnc2)n1
The “hERG current change (%, negative = inhibition) at 1uM” value of the first is lower: -0.887% for the first, 2.48% for the second.

Going from `O=C1N=c2ccccc2=C1c1sc(NS(=O)(=O)Cc2ccccc2)nc1O` to `COC(=O)c1c(-c2ccccc2)csc1N1C(=O)Nc2ccccc2N1O`, the “hERG current change (%, negative = inhibition) at 1uM” value falls from 15.6% to 14.6%.

Compared with `O=C(c1ccco1)c1cn(CC(=O)N2CCCCCC2)c2ccccc12`, `O=C(CN1C(=O)S/C(=C\C=C\c2ccccc2)C1=O)N1CCCCC1` is higher in “hERG current change (%, negative = inhibition) at 1uM” value: -2.24% for the first, 11.8% for the second.

Going from `CC(OC(=O)CN1C(=O)NC2(CCCC2)C1=O)c1ccc(F)cc1` (centres unmarked) to `CC1(C)CC(CC(=O)O)(c2ccc(F)cc2)CCO1` (centres unmarked), the “hERG current change (%, negative = inhibition) at 1uM” value rises from -7.02% to 8.39%.

First: COc1ccc(N2C(=O)CC(N(Cc3ccc(S(N)(=O)=O)cc3)C(C)=O)C2=O)cc1 (centres unmarked)
Second: COc1ccc(CN(C)CC(=O)NC(=O)Nc2ccccc2F)cc1
The “hERG current change (%, negative = inhibition) at 1uM” value of the first is higher: 6.65% for the first, 3.94% for the second.

First: COc1ccc(Cl)cc1NC(=O)COC(=O)c1ccc(Cl)nc1
Second: COc1ccc(NC(=O)c2cccc(OC(F)F)c2)cc1Cl
The “hERG current change (%, negative = inhibition) at 1uM” value of the first is higher: -0.707% for the first, -9.13% for the second.

Compared with `CCOC(=O)c1c(OCCO)noc1N`, `CCOC(=O)Cc1csc(NC(=O)COc2ccc(OC)cc2)n1` is lower in “hERG current change (%, negative = inhibition) at 1uM” value: 13.7% for the first, -1.79% for the second.

Compared with `CC(=O)c1coc2ccc(OCC(=O)O)cc12`, `O=C(O)c1cccc(C(=O)c2cccc3ccccc23)c1` is higher in “hERG current change (%, negative = inhibition) at 1uM” value: -0.294% for the first, 5.51% for the second.

Going from `CCOC(=O)C(NC(C)=O)C(=O)O` (centres unmarked) to `CCCN1C=CC(=C/C=C(\C#N)C(=O)OCC)C=C1`, the “hERG current change (%, negative = inhibition) at 1uM” value falls from 6.58% to -1.45%.

Compared with `Cn1c(SCC(=O)N2CCCC2=O)nc2ccccc21`, `COc1ccc(-n2c(SCC(=O)N3CCOCC3)nc(O)cc2=O)cc1` is lower in “hERG current change (%, negative = inhibition) at 1uM” value: 18.4% for the first, 15% for the second.

First: CN(C(=O)CSc1nc(-c2ccc(C(C)(C)C)cc2)c(C#N)c(=O)[nH]1)C1CCCCC1
Second: COc1ccc(C(C(=O)NC2CCCCC2)N(Cc2ccco2)C(=O)c2ccccn2)c(OC)c1 (centres unmarked)
The “hERG current change (%, negative = inhibition) at 1uM” value of the first is higher: 13% for the first, 6.08% for the second.

First: CCC1CCCCN1CCCNC(=O)CCNC(=O)Cn1cnc2ccccc2c1=O (centres unmarked)
Second: CC(=O)c1cn(CC(=O)NCCc2c[nH]c3ccccc23)c2ccccc12
The “hERG current change (%, negative = inhibition) at 1uM” value of the first is higher: 10.3% for the first, 7.64% for the second.

Going from `CC/C(O)=C1\C(=O)CCCC1=NCc1nc2ccccc2[nH]1` to `CC(C)OCCCNc1nc(-c2ccccc2)nc2ccccc12.Cl`, the “hERG current change (%, negative = inhibition) at 1uM” value rises from 7.75% to 10.2%.

Compared with `Cc1ccc(-c2c3c(=O)n(C)c(=O)n(C)c3cn2CCCN2CCOCC2)cc1`, `Cc1ccc(C(=O)OC(C)C(=O)Nc2ccc(S(N)(=O)=O)cc2)cc1S(=O)(=O)N1CCOCC1` (centres unmarked) is lower in “hERG current change (%, negative = inhibition) at 1uM” value: 9.2% for the first, 0.0081% for the second.

Compared with `CCc1cccc(CC)c1NC(=S)NCCc1ccc(O)c(O)c1`, `COc1ccc(CCNC(=O)N[C@@H](Cc2ccccc2)C(=O)O)cc1` is higher in “hERG current change (%, negative = inhibition) at 1uM” value: 9% for the first, 17.3% for the second.

First: Cc1ccc(C)c(OCCC(=O)OCC(=O)NC2CCS(=O)(=O)C2)c1 (centres unmarked)
Second: CCCCc1nc2cc(C(=O)NC3CCOC(C)(C)C3)ccc2o1 (centres unmarked)
The “hERG current change (%, negative = inhibition) at 1uM” value of the first is lower: 10.7% for the first, 11.7% for the second.

Compared with `CC(C)NC(=O)c1cc(-c2ccc(Br)cc2)on1`, `CC(=O)Nc1c(NC(C)C)c2ccccc2oc1=O` is higher in “hERG current change (%, negative = inhibition) at 1uM” value: -2.63% for the first, 13.3% for the second.

First: Cc1c(C(=O)O)c2cc(O)ccc2n1-c1ccccc1
Second: Cc1cc(N=Cc2c(O)n(-c3cccc(Cl)c3)c(=O)c3ccccc23)no1
The “hERG current change (%, negative = inhibition) at 1uM” value of the first is lower: -0.33% for the first, 8.47% for the second.

Going from `CC1CCCCN1C(=O)CSc1nnc(-c2cccnc2)o1` (centres unmarked) to `COc1ccc(CC(=O)n2nc(-c3cccnc3)nc2N)cc1`, the “hERG current change (%, negative = inhibition) at 1uM” value falls from 16.2% to -1.12%.

Going from `CN(C(=O)c1ccc([N+](=O)[O-])cc1)c1ccccc1C(=O)NCc1ccccc1` to `Cc1ccc(S(=O)(=O)N(Cc2ccccc2)c2ccccc2C(=O)Nc2ccccc2C(=O)NCc2ccco2)cc1`, the “hERG current change (%, negative = inhibition) at 1uM” value falls from 14.1% to 5.5%.

Compared with `COc1cc(OC)cc(C(=O)n2nc(C)cc2C)c1`, `COc1ccc(-c2oc3ncnc(NCCCN(C)C)c3c2-c2ccc(OC)cc2)cc1` is higher in “hERG current change (%, negative = inhibition) at 1uM” value: -0.526% for the first, 4.28% for the second.

First: COc1ccccc1CN1C(=O)[C@@H]2C(CCC(N)=O)NC3(C(=O)Nc4c3ccc(Cl)c4C)[C@@H]2C1=O (some centres unmarked)
Second: COc1ccc(C2CC(c3c(-c4ccccc4)c4cc(Cl)ccc4[nH]c3=O)=NN2S(C)(=O)=O)cc1OC (centres unmarked)
The “hERG current change (%, negative = inhibition) at 1uM” value of the first is lower: 1.91% for the first, 8.1% for the second.

Compared with `CC(=O)C1C(=O)CC(C)(O)C(C(C)=O)C1c1ccc(N(C)C)cc1` (centres unmarked), `C=CCN(c1ccc(C(=O)N(CC)CC)cc1)S(C)(=O)=O` is lower in “hERG current change (%, negative = inhibition) at 1uM” value: 13.7% for the first, 0.31% for the second.

Going from `COc1cc(/C=N/NC(=O)CCc2n[nH]c(=O)[nH]c2=O)ccc1O` to `C#CCOc1c(Br)cc(/C=C2/C(=O)ON=C2C)cc1OCC`, the “hERG current change (%, negative = inhibition) at 1uM” value rises from 6.81% to 17.3%.

First: NC(=O)c1cccnc1Oc1ccc(Cl)cc1
Second: CSc1nccc(Oc2ccccc2Cl)n1
The “hERG current change (%, negative = inhibition) at 1uM” value of the first is lower: 9.26% for the first, 10.4% for the second.

Compared with `O=C(NC1CCCC1)C(c1ccncc1)N(C(=O)Cc1cccs1)c1cccc(F)c1` (centres unmarked), `COC(=O)c1ccc(-c2csc(NC(=O)c3ccc(S(=O)(=O)N4CCc5ccccc5C4)cc3)n2)cc1` is lower in “hERG current change (%, negative = inhibition) at 1uM” value: 6.68% for the first, 5.62% for the second.

First: Fc1cc(F)c(C2SCCN2C(=S)Nc2cccc(C(F)(F)F)c2)c(F)c1 (centres unmarked)
Second: O=C(Nc1cccc([N+](=O)[O-])c1)ONC1=NCCCCC1
The “hERG current change (%, negative = inhibition) at 1uM” value of the first is higher: 16.3% for the first, -2.5% for the second.

First: CCN(CC)S(=O)(=O)c1ccc(C(=O)Nc2nnc(C(C)C)s2)cc1
Second: COC(=O)C1=C(c2ccc(C(C)=O)cc2)C[C@@H]2CC[C@H]1N2C(=O)N1CCC(O)(c2ccc(Cl)cc2)CC1
The “hERG current change (%, negative = inhibition) at 1uM” value of the first is higher: -0.0321% for the first, -3.23% for the second.

First: O=S(=O)(Cc1ccccc1)N1CCN(Cc2ccc3c(c2)OCO3)CC1
Second: COc1ccccc1Oc1ccc(-c2cnc3ccccc3n2)cc1[N+](=O)[O-]
The “hERG current change (%, negative = inhibition) at 1uM” value of the first is lower: 4% for the first, 15.4% for the second.

First: CN=C1NN=C(c2cc(C)n(-c3ccc(Cl)cc3)c2C)CS1
Second: C[C@@H]1C[C@@H]2O[C@H]2/C=C\C=C\C(=O)Cc2c(Cl)c(O)cc(O)c2C(=O)O1
The “hERG current change (%, negative = inhibition) at 1uM” value of the first is lower: 12.7% for the first, 17.1% for the second.

With `C/C(=N/NC(N)=S)c1ccccc1[N+](=O)[O-]` the “hERG current change (%, negative = inhibition) at 1uM” value was 6.12%.
